Measurements as given in PubChem BioAssay AID1508624 (National Center for Advancing Translational Sciences (NCATS), 2021).
Hit rate of the full screen: of about 48,000 compounds, about 120 (0.25%) were called active. Not shown: some 4% with an inconclusive outcome. The call rests on the fitted dose curve; in most records, active means well fitted activation curve with a large enough effect; inconclusive means small, poorly fitted or top-dose-only effect, or another doubt; inactive means no such curve, though single readings can be large or run the other way. The list shows a part of the results.

Assay: Primary qHTS for Identification of Small Molecule Activators of Huntingtin-Antisense Promoter Activity; further: nearly all actives have a fitted effect of over 55% in size
Details: HEK293 HTT-AS promoter firefly luciferase reporter, 24 h; series mostly up to 57.5 µM; activity change, positive = activation: at the top concentration
Method in brief: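 Firefly luciferase signal from promoter-reporter HEK293 cells was scaled between vehicle (0%) and zero RLU (-100%). Compounds were tested at final concentrations of up to 57.5 uM over 24 h at 37 degrees C. PTC124 at 50 uM final served as control inhibitor.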

Activity change, positive = activation, inactive:
Cc1ccc(-n2cnnn2)cc1S(N)(=O)=O -4.47%, COc1ccc2[nH]cc(CCN=C(NC(=O)c3ccccc3OC)Nc3nc(C)cc(C)n3)c2c1 -51.3%, CCc1cc2c(cc3c(=O)n(CC(=O)NCCc4ccc(OC)cc4OC)nc(CC)n32)s1 -5.1%, COC(=O)Cn1c(SCCOc2ccccc2OC)nc2ccccc21 4%, Cc1cc2[nH]c(=O)c(=O)[nH]c2cc1S(=O)(=O)N1CCN(c2cccc(Cl)c2)CC1 -7%, Cc1ccc(NC(=O)c2ccc(NC(=O)CCS(=O)(=O)c3cccs3)cc2)cc1F -42.6%, COc1cccc(Cn2cc(C(=O)c3ccc(Cl)cc3)c(=O)c3ccccc32)c1 -24.3%, Cc1ccccc1Nc1c(-c2ccc(N3CCOCC3)cc2)nc2ccc(Br)cn12 21.7%, CCSc1ncc(Cl)c(C(=O)Nc2cccc(Cl)c2)n1 -12.2%, Cc1nc2cccnc2n1C1CCN(C(=O)Nc2ccc(Cl)cc2)CC1 10.1%, COC(=O)Cc1c(C)c2ccc3c(c2oc1=O)CN(Cc1ccccc1Cl)CO3 -24.4%, CCc1c(C)sc2c1CCN(Cc1ccccc1F)C2c1ccccc1 (stereo not drawn) -28.2%, CCOc1ccc(-c2c(C)nn3c(C)c(C(=O)NCCc4ccc(C)cc4)cnc23)cc1OCC -18.7%, COc1ccc(NC(=O)C2CCN(S(=O)(=O)c3c(C)noc3/C=C/c3cccs3)CC2)cc1Cl -17.5%, O=C(NCCSc1c[nH]c2ccccc12)c1ccccc1Cl -16.1%, Cc1cc(C)cc(NC(=O)C(Cc2ccccc2)NS(=O)(=O)c2ccc3c(c2)CCC(=O)N3)c1 (stereo not drawn) -23.1%, CCOc1ccccc1NC(=O)C(=O)Nc1ccc2nc3n(c(=O)c2c1)CCCCC3 -42.3%, CN(C(Cc1ccc(OS(=O)(=O)c2cccc3cnccc23)cc1)C(=O)N1CCN(c2ccccc2)CC1)S(=O)(=O)c1cccc2cnccc12 (stereo not drawn) -21.3%, O=C(c1ccccc1)N1c2nc(-c3ccco3)nn2C2(CCCCC2)[C@@H]2CCCC[C@@H]21 -16.6%, Cc1ccccc1OCc1ccc(-c2nc(C#N)c(N3CCN(c4cccc(Cl)c4)CC3)o2)o1 -12%, Cc1cc(C)c(NC(=O)C2CCCN(S(=O)(=O)c3c(C)noc3C)C2)c(C)c1 (stereo not drawn) -8.6%, Cc1ccc(CNC(=O)C(=O)NCC(c2ccc3c(c2)OCO3)N2CCOCC2)cc1 (stereo not drawn) -15.1%, CCOC(=O)C1(C)C=C(Nc2cccc(C(=O)O)c2)C(=O)N1c1ccccc1 (stereo not drawn) 19.2%, Cc1ccc2c(=O)cc(C(=O)Nc3c(C)n(C)n(-c4ccccc4)c3=O)oc2c1 5.51% [at 11.5 µM, percent change from vehicle, -100% = no light], COc1cc(NC(=O)CSc2nc3nc(C)c(Cc4ccccc4Cl)c(C)n3n2)cc(OC)c1 -2.29%, COc1ccccc1N1CCN(C(=O)C2CCCN(S(=O)(=O)c3ccc4c(c3)CCCN4C(C)=O)C2)CC1 (stereo not drawn) -27.7%, CCCOc1ccc(CNC(=O)C(NS(=O)(=O)c2cccs2)C(C)C)cc1 (stereo not drawn) 9.96%, COc1cc(Cl)c(C)cc1NC(=O)c1cnc(N2CCCCC2)c2ccccc12 -20.1%, COc1cc2nc(SCc3ccc(C)cc3)n3nc(CCn4nc(C)cc4C)nc3c2cc1OC -0.491%, CC(C)Cn1c(-c2cccc(Br)c2)nc2ccccc21 -34.6%, COC(=O)C(CCSC)Nc1ncnc2onc(-c3ccc(F)cc3)c12 (stereo not drawn) -10.3%, O=C(CSc1nc(-c2cccc(F)c2)[nH]c1-c1ccccc1)Nc1ccc2c(c1)OCO2 -24.1%, O=C(CSc1nc2ccccc2nc1Cc1ccc(Cl)cc1)N1CCN(c2ccccc2)CC1 -14.8%, Cc1ccc(-n2ncc(C(=O)NCc3ccco3)c2C2CCN(C(=O)OC(C)(C)C)CC2)cc1C -33.4%, COc1cc(NC(=O)c2cc3cc4ccc(C)cc4nc3o2)cc(OC)c1OC -53.1%, CCc1ccccc1N(C)C(=O)C1CCCN(c2ncnc3c2nc2n3CCCCC2)C1 (stereo not drawn) -35.7%, Cc1c(C(=O)Nc2cc(F)ccc2F)sc2nc(-c3ccc(F)cc3)cn12 1.15%, CCCCCCOc1ccc(C2C(=O)N(C3CCCCC3)CC(=O)N2C2CCCCC2)cc1 (stereo not drawn) -6.29%, CCC(=O)N1CCc2cc(S(=O)(=O)NCCC(=O)Nc3ccc(N(CC)CC)cc3C)ccc21 -4.76%, CCN(CC)S(=O)(=O)c1ccc(C(=O)NCCSc2c(-c3ccccc3)[nH]c3ccccc23)cc1 -33.6%, O=C(c1ccc2c(c1)N(Cc1ccc(F)cc1)C(=O)c1ccccc1S2(=O)=O)N1CCCCC1 -13.8%, Cc1ccc(-c2nn3c(C)nnc3c3ccccc23)cc1S(=O)(=O)NCC(C)O (stereo not drawn) -2.9%, NC(=O)c1cc(S(=O)(=O)N2CCN(c3cccc(C(F)(F)F)c3)CC2)cs1 -13.1%, COc1cc(NC(=O)CSc2c3c(nc4ccccc24)CCC3)cc(OC)c1OC -21.4%, Cc1cccc(S(=O)(=O)c2cn(Cc3ccccc3)c3cc(N4CCCCC4)c(F)cc3c2=O)c1 -17.5%, CC[C@H](CC#N)OC(=O)N[C@@H](C)c1cccc(NC(=O)Nc2ccc(-c3cnco3)c(OC)c2)c1 -37.2%, COC(=O)c1ccccc1NS(=O)(=O)c1cc2c(cc1C)N(C)CCO2 -9.03%, CCN(CC)C(=O)c1c(-c2ccccc2)c(-c2ccccc2)nn(CC)c1=O -2.71%, COc1ccccc1N1CCN(C(=O)CN2C(=O)COc3ccc(S(=O)(=O)N4CCOCC4)cc32)CC1 -18.7%, COc1ccc(CCC(=O)NC2CC(=O)N(c3ccc(F)cc3)C2)cc1 (stereo not drawn) -12.8%, CCN(Cc1nc(-c2ccc(OC)c(OC)c2)no1)S(=O)(=O)c1ccc(OC)cc1 -26.8%, C#Cc1cccc(Nc2ncnc3cc(OCCOC)c(OCCO)cc23)c1 -36%, CN1[C@@H]2CC(OC(=O)[C@H](CO)c3ccccc3)C[C@H]1[C@@H]1O[C@@H]12 (stereo partly drawn) -28.4%, Cn1cnc2c(F)c(Nc3ccc(Br)cc3F)c(C(=O)NOCCO)cc21 -0.233%, O=C(CSc1nc(=O)n(Cc2ccccn2)c2c1CCC2)Nc1ccccc1 -26.6%, CSc1ccccc1NC(=O)CCS(=O)(=O)c1nc(-c2ccc3c(c2)OCO3)cc(C(F)(F)F)n1 -2.08%, CC(C)(C)OC(=O)N1CCC(c2c(C(=O)NC3CCCCC3)cnn2-c2ccc(F)cc2F)CC1 -17.3%, COc1cc(CNC(=O)c2cnc(SC)nc2-c2ccccc2)cc(OC)c1OC -15.3%, Cc1ccc(S(=O)(=O)C(CNS(=O)(=O)c2cc(F)ccc2F)c2cccs2)cc1 (stereo not drawn) -19.2%, Cc1cccc(C)c1NC(=O)Cn1nnc(S(=O)(=O)c2ccccc2)c1N -13.9%, O=C1CN(C(=O)c2ccc(S(=O)(=O)N3CCCC3)cc2)C(c2ccccc2)c2cc(F)ccc2N1 (stereo not drawn) 6.16%, Cc1ccccc1-c1noc(-c2ccccc2OCC(=O)Nc2cccc([N+](=O)[O-])c2)n1 -10.1%, N#Cc1c(-c2ccccc2)cc(-c2ccccc2)nc1SCC(O)CS(=O)(=O)Cc1ccc(Cl)cc1 (stereo not drawn) 0%, COc1ccc2c3c1OC1C[C@@H](O)C=C[C@@]31CCN(C)C2 (stereo partly drawn) -11.5%, CCn1cc(/C=C(\NC(=O)c2cc(OC)c(OC)c(OC)c2)C(=O)NCCCn2ccnc2)c2ccccc21 -7.12%, Cc1cc(NC(=O)Cc2ccccc2)cc(-c2nc3ccccc3o2)c1O 1.97%, Cc1c(C(=O)NCCN(C)C)oc2c1-c1nn(Cc3cccc(Cl)c3)cc1CC2 -14.9%, CCOC(=O)c1cc2c(=O)n3ccccc3nc2n(C(C)C)c1=NC(=O)C(C)(C)Oc1ccc(Cl)cc1 15.3%, CN(C)c1ccc(Nc2ncnc3c2c(-c2ccccc2)cn3-c2cccc(Cl)c2)cc1 -27.4%, CCn1cc2nc(SCc3ccccc3Cl)n(Cc3ccc(OC)cc3)c(=O)c2n1 -6.84%, COc1cccc(CNC(=O)c2ccc(-c3nc(CSc4ccccc4)c(C)o3)cc2)c1 6.28%, CC(=O)Nc1ccccc1-c1nc2ccccc2n(C(C)C(=O)Nc2ccccc2C(F)(F)F)c1=O (stereo not drawn) -12.9%, COc1ccc(-c2c(C)c3ccc(O)c(CN4CCC(C)CC4)c3oc2=O)cc1OC -12.8%, CCCN(CCC)CCCNC(=O)c1cc2c(=O)n(C)c3ccccc3c2s1 0.039%, Cc1ccc(CNC(=O)c2cc(=O)c3cc(C)ccc3o2)cc1 -14.4%, COc1cc(OC)c(OC)cc1/C=C/c1nc2cc3ccccc3cc2c(=O)n1-c1ccccc1Br -11.8%, COc1cc2c(c(OC)c1)C(c1cccc(F)c1F)CC(=O)N2 (stereo not drawn) -13.8%, CCN1CCN(c2oc(-c3ccc(COc4ccccc4C)o3)nc2C#N)CC1 -22.9%, Cc1ccc(NC(=O)C2CCN(S(=O)(=O)c3cccc4nsnc34)CC2)cc1F -16%, Cc1noc(C)c1S(=O)(=O)N(CC(=O)Nc1ccc(F)cc1F)c1ccc(C(C)C)cc1 -39.4%, COc1cccc(CNC(=O)Cn2ncn3nc(-c4cccs4)cc3c2=O)c1 -3.17%, Oc1c(C(Nc2ccccn2)c2ccccc2F)ccc2cccnc12 (stereo not drawn) -30.4%, COc1ccc(Cn2ccc3nc(C)c(C(=O)Nc4cccc(SC)c4)cc3c2=O)cc1 -14.6%, COc1ccc(NC(=O)C(=O)NCCc2csc3nc(-c4ccccc4F)nn23)cc1OC 2.9%, COCCNC(=O)Cn1nc(-c2ccccc2)c2ccccc2c1=O 0%, COc1cc(OC)c(C2CC(=O)Nc3ccc4ccccc4c32)cc1OC (stereo not drawn) -15.2%, Nc1nc(N)c(N=O)c(OCC2CCCCC2)n1 7.01%, COC(=O)c1ccccc1NC(=O)c1nc(-c2ccc(C)cc2)n2c1CCCCC2 -5.23%, CC(NC(=O)Cn1c(=O)oc2cc(S(=O)(=O)N3CCCCCC3)ccc21)c1ccccc1 (stereo not drawn) -2.58%, CC(NC(=O)c1cc2c(=O)n3ccccc3nc2n(C(C)C)c1=N)c1ccccc1 (stereo not drawn) 2.59%, Cc1cccc(OC(=O)CSc2nnc(-c3ccc4c(c3)OCO4)o2)c1C -32.1%, Cc1ccc(C2=NN(CC(=O)NCCc3ccccc3)C(=O)CC2)cc1 -1.85%, COc1cccc(Cn2c(=O)n(CC3CCC(C(=O)NC(C)C)CC3)c(=O)c3sccc32)c1 (stereo not drawn) -11.3%
